Assay results reported in the supplement of paper PMC8728848.
The list shows a part of the results.

Experiments:
Assay in all cases: glycan array binding signal (z-score within array); higher = stronger binding
Settings in all cases: glycan notation: IUPAC condensed, linker removed
[1] = target: Gal(b1-3)GlcNAc(b1-6)[Gal(b1-3)]GalNAc
In short: (§1)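 The binding signal is a Z-score computed within each array and averaged over linkers. Arrays of the same protein sequence at different concentrations or buffers were also averaged together. Data originate from 3228 arrays in the Consortium for Functional Glycomics database, kept only where the protein sequence was available.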

[2] = target: Gal(b1-3)GlcNAc6S
In short: as §1

[3] = target: Gal(b1-3)[Fuc(a1-4)]GlcNAc
In short: as §1

[4] = target: Gal(b1-3)[Fuc(a1-4)]GlcNAc(b1-2)Man
In short: as §1

[5] = target: Gal(b1-3)[Fuc(a1-4)]GlcNAc(b1-2)Man(a1-3)[Gal(b1-3)[Fuc(a1-4)]GlcNAc(b1-2)Man(a1-6)]Man(b1-4)GlcNAc(b1-4)[Fuc(a1-6)]GlcNAc
In short: as §1

[6] = target: Gal(b1-3)[Fuc(a1-4)]GlcNAc(b1-3)Gal(b1-3)[Fuc(a1-4)]GlcNAc
In short: as §1

[7] = target: Gal(b1-3)[Fuc(a1-4)]GlcNAc(b1-3)Gal(b1-4)[Fuc(a1-3)]GlcNAc
In short: as §1

[8] = target: Gal(b1-3)[Fuc(a1-4)]GlcNAc(b1-6)GalNAc
In short: as §1

[9] = target: Gal(b1-3)[GlcNAc(b1-6)]GalNAc
In short: as §1

[10] = target: Gal(b1-3)[Neu5Ac(a2-6)]GalNAc
In short: as §1

[11] = target: Gal(b1-3)[Neu5Ac(a2-6)]GlcNAc(b1-4)Gal(b1-4)Glc
In short: as §1

[12] = target: Gal(b1-3)[Neu5Ac(b2-6)]GalNAc
In short: as §1

[13] = target: Gal(b1-4)Gal
In short: as §1

[14] = target: Gal(b1-4)GalNAc(a1-3)[Fuc(a1-2)]Gal(b1-4)GlcNAc
In short: as §1

[15] = target: Gal(b1-4)GalNAc(b1-3)[Fuc(a1-2)]Gal(b1-4)GlcNAc
In short: as §1

[16] = target: Gal(b1-4)Glc
In short: as §1

[17] = target: Gal(b1-4)Glc6S
In short: as §1

[18] = target: Gal(b1-4)GlcNAc
In short: as §1

[19] = target: Gal(b1-4)GlcNAc(a1-6)Gal(b1-4)GlcNAc
In short: as §1

[20] = target: Gal(b1-4)GlcNAc(b1-2)Man
In short: as §1

[21] = target: Gal(b1-4)GlcNAc(b1-2)Man(a1-3)Man(b1-4)GlcNAc(b1-4)GlcNAc
In short: as §1

[22] = target: Gal(b1-4)GlcNAc(b1-2)Man(a1-3)[Gal(b1-4)GlcNAc(b1-2)Man(a1-6)]Man(b1-4)GlcNAc(b1-4)GlcNAc
In short: as §1

[23] = target: Gal(b1-4)GlcNAc(b1-2)Man(a1-3)[Gal(b1-4)GlcNAc(b1-2)Man(a1-6)]Man(b1-4)GlcNAc(b1-4)[Fuc(a1-6)]GlcNAc
In short: as §1

[24] = target: Gal(b1-4)GlcNAc(b1-2)Man(a1-3)[Gal(b1-4)GlcNAc(b1-2)Man(a1-6)][Gal(b1-4)GlcNAc(b1-4)]Man(b1-4)GlcNAc(b1-4)[Fuc(a1-6)]GlcNAc
In short: as §1

[25] = target: Gal(b1-4)GlcNAc(b1-2)Man(a1-3)[Gal(b1-4)GlcNAc(b1-2)Man(a1-6)][GlcNAc(b1-4)]Man(b1-4)GlcNAc(b1-4)[Fuc(a1-6)]GlcNAc
In short: as §1

[26] = target: Gal(b1-4)GlcNAc(b1-2)Man(a1-3)[GlcNAc(b1-2)Man(a1-6)]Man(b1-4)GlcNAc(b1-4)GlcNAc
In short: as §1

[27] = target: Gal(b1-4)GlcNAc(b1-2)Man(a1-3)[GlcNAc(b1-4)][Gal(b1-4)GlcNAc(b1-2)Man(a1-6)]Man(b1-4)GlcNAc(b1-4)GlcNAc
In short: as §1

[28] = target: Gal(b1-4)GlcNAc(b1-2)Man(a1-3)[Man(a1-6)]Man(b1-4)GlcNAc(b1-4)GlcNAc
In short: as §1

[29] = target: Gal(b1-4)GlcNAc(b1-2)Man(a1-6)Man(b1-4)GlcNAc(b1-4)GlcNAc
In short: as §1

[30] = target: Gal(b1-4)GlcNAc(b1-2)Man(a1-6)[GlcNAc(b1-2)Man(a1-3)]Man(b1-4)GlcNAc(b1-4)GlcNAc
In short: as §1

[31] = target: Gal(b1-4)GlcNAc(b1-2)Man(a1-6)[Man(a1-3)]Man(b1-4)GlcNAc(b1-4)GlcNAc
In short: as §1

[32] = target: Gal(b1-4)GlcNAc(b1-2)[Gal(b1-4)GlcNAc(b1-4)]Man(a1-3)[Gal(b1-4)GlcNAc(b1-2)Man(a1-6)]Man(b1-4)GlcNAc(b1-4)GlcNAc
In short: as §1

[33] = target: Gal(b1-4)GlcNAc(b1-2)[Gal(b1-4)GlcNAc(b1-4)]Man(a1-3)[Gal(b1-4)GlcNAc(b1-2)[Gal(b1-4)GlcNAc(b1-6)]Man(a1-6)]Man(b1-4)GlcNAc(b1-4)GlcNAc
In short: as §1

[34] = target: Gal(b1-4)GlcNAc(b1-2)[Gal(b1-4)GlcNAc(b1-4)]Man(a1-3)[GlcNAc(b1-4)][Gal(b1-4)GlcNAc(b1-2)Man(a1-6)]Man(b1-4)GlcNAc(b1-4)GlcNAc
In short: as §1

[35] = target: Gal(b1-4)GlcNAc(b1-2)[Gal(b1-4)GlcNAc(b1-4)]Man(a1-3)[GlcNAc(b1-4)][Gal(b1-4)GlcNAc(b1-2)[Gal(b1-4)GlcNAc(b1-6)]Man(a1-6)]Man(b1-4)GlcNAc(b1-4)GlcNAc
In short: as §1

[36] = target: Gal(b1-4)GlcNAc(b1-2)[Gal(b1-4)GlcNAc(b1-6)]Man(a1-6)[Gal(b1-4)GlcNAc(b1-2)Man(a1-3)]Man(b1-4)GlcNAc(b1-4)GlcNAc
In short: as §1

[37] = target: Gal(b1-4)GlcNAc(b1-2)[Gal(b1-4)GlcNAc(b1-6)]Man(a1-6)[Gal(b1-4)GlcNAc(b1-2)Man(a1-3)]Man(b1-4)GlcNAc(b1-4)[Fuc(a1-6)]GlcNAc
In short: as §1

B1: B1257 (Bifidobacterium sp) (protein)
chain: MKKSIRLVAAIAALAMTAGISACGSSTNGNQAKSDVTAQDVETALTDTSKNVELTVWAYSAKQMEPTVKAFEKKYPHIKINFVNTGAAGDHFTKFQNVVQAQKDIPDVVQMGANKFQQFAVSGALLNFANDSIEKAWSKLYTKTAWAQVHYAGGLYGAPQDATPLANYVRKDILDEHNLQVPESWEDIYNEGIKLHKEDSNKYMGILGSDISFFTNLYRSVGARLWKVNSVDDVELTMNSGKAKEFTEFLQKCLKDGVLEGGTVFTDEFNRSINDGRYATFINENWMGNTYKEQNPSLKGKMVVAAPPSWKGQPYQSSSVGSMMSVSAACPKEKQAAALAFINWLDSDKDAIQSWQDTNNGNFFMAASVYQDDENQRNKKETDGYYANDDVNAVYFDSMDKVNTDWEYLPFMSQVEVVFNDVIVPQMNENGDLVGAMAKAQQELKTYAKDNGFKVTTDAD
[1]
  glycan array binding signal (z-score): 0.202
[2]
  glycan array binding signal (z-score): -0.058
[3]
  glycan array binding signal (z-score): -0.093
[4]
  glycan array binding signal (z-score): 0
[5]
  glycan array binding signal (z-score): 0.461
[6]
  glycan array binding signal (z-score): -0.086
[7]
  glycan array binding signal (z-score): -0.048
[8]
  glycan array binding signal (z-score): 0.177
[9]
  glycan array binding signal (z-score): -0.04
[10]
  glycan array binding signal (z-score): -0.163
[11]
  glycan array binding signal (z-score): -0.197
[12]
  glycan array binding signal (z-score): -0.038
[13]
  glycan array binding signal (z-score): -0.08
[14]
  glycan array binding signal (z-score): -0.168
[15]
  glycan array binding signal (z-score): -0.052
[16]
  glycan array binding signal (z-score): -0.053
[17]
  glycan array binding signal (z-score): 0.11
[18]
  glycan array binding signal (z-score): -0.115
[19]
  glycan array binding signal (z-score): -0.093
[20]
  glycan array binding signal (z-score): -0.056
[21]
  glycan array binding signal (z-score): -0.12
[22]
  glycan array binding signal (z-score): -0.064
[23]
  glycan array binding signal (z-score): 0.059
[24]
  glycan array binding signal (z-score): -0.139
[25]
  glycan array binding signal (z-score): -0.166
[26]
  glycan array binding signal (z-score): -0.187
[27]
  glycan array binding signal (z-score): -0.171
[28]
  glycan array binding signal (z-score): -0.051
[29]
  glycan array binding signal (z-score): -0.085
[30]
  glycan array binding signal (z-score): -0.035
[31]
  glycan array binding signal (z-score): 0.042
[32]
  glycan array binding signal (z-score): -0.081
[33]
  glycan array binding signal (z-score): -0.103
[34]
  glycan array binding signal (z-score): -0.094
[35]
  glycan array binding signal (z-score): -0.071
[36]
  glycan array binding signal (z-score): -0.006
[37]
  glycan array binding signal (z-score): -0.054
